In all, about 310,000 compounds went through this assay and about 2,200 (0.71%) showed an effect of 50% or more. The effect is printed as a negative number. Some of the results follow.
These compounds were tested against human ether-à-go-go-related gene (hERG) potassium channel (human, UniProt Q12809) (assay: primary screen, population patch clamp on CHO cells stably expressing hERG).
human ether-à-go-go-related gene (hERG) potassium channel, sequence (Q12809 whole entry, looked up): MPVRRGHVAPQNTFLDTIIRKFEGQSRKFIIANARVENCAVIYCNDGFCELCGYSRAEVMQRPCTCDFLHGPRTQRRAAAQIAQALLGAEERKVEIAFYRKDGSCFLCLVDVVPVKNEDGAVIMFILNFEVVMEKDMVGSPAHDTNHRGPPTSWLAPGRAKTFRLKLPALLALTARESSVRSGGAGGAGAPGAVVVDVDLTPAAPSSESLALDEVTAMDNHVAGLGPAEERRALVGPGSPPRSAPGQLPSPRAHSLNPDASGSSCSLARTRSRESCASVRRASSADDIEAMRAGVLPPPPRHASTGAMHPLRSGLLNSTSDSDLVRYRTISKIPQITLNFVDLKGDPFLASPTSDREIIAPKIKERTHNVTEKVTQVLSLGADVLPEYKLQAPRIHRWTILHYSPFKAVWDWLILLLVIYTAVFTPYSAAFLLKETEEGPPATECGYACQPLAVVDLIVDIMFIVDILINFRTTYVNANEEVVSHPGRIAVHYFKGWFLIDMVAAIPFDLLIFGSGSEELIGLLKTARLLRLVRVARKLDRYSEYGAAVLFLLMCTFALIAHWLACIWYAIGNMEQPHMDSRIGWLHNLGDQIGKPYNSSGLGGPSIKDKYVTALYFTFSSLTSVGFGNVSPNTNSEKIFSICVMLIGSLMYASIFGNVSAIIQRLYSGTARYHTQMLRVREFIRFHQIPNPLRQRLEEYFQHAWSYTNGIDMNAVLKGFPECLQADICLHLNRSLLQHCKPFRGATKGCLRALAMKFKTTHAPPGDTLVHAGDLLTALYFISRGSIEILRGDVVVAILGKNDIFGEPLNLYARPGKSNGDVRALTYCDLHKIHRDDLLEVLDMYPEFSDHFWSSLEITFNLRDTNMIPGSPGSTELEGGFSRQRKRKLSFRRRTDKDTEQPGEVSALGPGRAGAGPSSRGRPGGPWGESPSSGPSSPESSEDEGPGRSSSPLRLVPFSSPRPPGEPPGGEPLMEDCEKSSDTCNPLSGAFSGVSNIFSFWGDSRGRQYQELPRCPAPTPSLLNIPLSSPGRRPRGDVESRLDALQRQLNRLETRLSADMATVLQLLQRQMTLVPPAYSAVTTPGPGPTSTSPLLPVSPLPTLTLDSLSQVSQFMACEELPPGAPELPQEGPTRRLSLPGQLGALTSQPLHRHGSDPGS
For N#C/C(=C\c1ccc(Cl)cc1)c1n[nH]c(Cn2cncn2)n1, the “hERG current change (%, negative = inhibition) at 1uM” value was 9.99%. O=C(CSc1ncccc1C(=O)O)NC1CCCCCCC1 was tested, and the “hERG current change (%, negative = inhibition) at 1uM” value was 7.77%. In the case of CCN1CCN(c2ccc(S(=O)(=O)N3CCCCC3)cc2NC(=O)c2cccc(NC(C)=O)c2)CC1, the “hERG current change (%, negative = inhibition) at 1uM” value is reported as -7.12%. In the case of CCC(=O)N1c2ccc(S(=O)(=O)N3CCN(c4cc(C)ccc4C)CC3)cc2CC1C (stereo not drawn), the “hERG current change (%, negative = inhibition) at 1uM” value is reported as 17.2%. With O=C(c1ccco1)N1CCN=C1SCc1ccccc1F the “hERG current change (%, negative = inhibition) at 1uM” value was 6.2%. In the case of CC1CCCCN1CC(=O)Nc1ccc(N2CCCCCC2)cc1.O=C(O)C(=O)O (stereo not drawn), the “hERG current change (%, negative = inhibition) at 1uM” value is reported as 6.37%. For NC(=O)CSc1nc2ccc([N+](=O)[O-])cc2[nH]1, the “hERG current change (%, negative = inhibition) at 1uM” value was 15.5%. With Cc1ccc2c(c1)N(C(=O)CCC(=O)NC1CCC(C)CC1)CCO2 (stereo not drawn) the “hERG current change (%, negative = inhibition) at 1uM” value was 2.51%. In the case of O=C(NNS(=O)(=O)c1ccccc1)C1CCN(S(=O)(=O)c2ccc(Cl)cc2)CC1, the “hERG current change (%, negative = inhibition) at 1uM” value is reported as -5.78%. With COc1cnc(-c2ccccn2)[nH]c1=O the “hERG current change (%, negative = inhibition) at 1uM” value was 5.52%. With Cc1ccc(C(=O)N2CCN(c3ccc([N+](=O)[O-])cc3)CC2)o1 the “hERG current change (%, negative = inhibition) at 1uM” value was -79%. For O=C(NNC(=S)Nc1ccc(F)cc1)c1ccccc1OC(F)F, the “hERG current change (%, negative = inhibition) at 1uM” value was 6.53%. COc1ccc(-c2nc3ccccn3c2CN2CCN(c3ccccc3F)CC2)cc1 was tested, and the “hERG current change (%, negative = inhibition) at 1uM” value was 8.83%. With Cc1ccc(C(=O)CSc2nc(-c3ccccc3)cc(=O)[nH]2)cc1 the “hERG current change (%, negative = inhibition) at 1uM” value was -2.33%. COc1c(C)cccc1C(=O)Nc1ccc(N2CCN(C(=O)c3ccccc3C)CC2)cc1 was tested, and the “hERG current change (%, negative = inhibition) at 1uM” value was 18.8%. With Cc1c(Cl)cccc1NC(=O)CCN1C(=O)C2CC=CCC2C1=O (stereo not drawn) the “hERG current change (%, negative = inhibition) at 1uM” value was 11.7%. O=c1[nH]c(/C(Cl)=C/c2cccc(F)c2)nc2cc(C(F)(F)F)ccc12 was tested, and the “hERG current change (%, negative = inhibition) at 1uM” value was 14.1%. In the case of Cc1cc(C)c(N(CC(=O)NC(C)(C)C)C(=O)CNC(=O)c2cccs2)c(C)c1, the “hERG current change (%, negative = inhibition) at 1uM” value is reported as 13.3%. In the case of O=c1c2cccc3c2c(nn1CN1CCOCC1)-c1ccccc1-3, the “hERG current change (%, negative = inhibition) at 1uM” value is reported as -15.3%. With COc1ccc(OC)c(NC=C2C(=O)OC3(CCCCC3)OC2=O)c1 the “hERG current change (%, negative = inhibition) at 1uM” value was -4.88%. With CC1CN(C)CCC1OC(=O)c1ccccc1.Cl (stereo not drawn) the “hERG current change (%, negative = inhibition) at 1uM” value was 3.72%. In the case of COc1ccccc1C1N(c2ccc(F)cc2)C(=O)C2CCCN21 (stereo not drawn), the “hERG current change (%, negative = inhibition) at 1uM” value is reported as 13.3%. With CCOC(=O)c1cc(C(=O)NN)c(=O)[nH]c1C the “hERG current change (%, negative = inhibition) at 1uM” value was 17.5%. For N#Cc1ccc(-c2cccnc2)nc1SCC(N)=O, the “hERG current change (%, negative = inhibition) at 1uM” value was 7.63%. With O=C1C=C(c2ccc(-c3ccccc3)c(F)c2)C[C@@H](c2ccc(F)cc2)C1 the “hERG current change (%, negative = inhibition) at 1uM” value was 6.88%. CN(CC(=O)NCCc1ccc(S(N)(=O)=O)cc1)S(=O)(=O)/C=C/c1ccccc1 was tested, and the “hERG current change (%, negative = inhibition) at 1uM” value was 6.03%. For Cl.O=[N+]([O-])c1ccc(COc2cccc(CNc3ccc(F)cc3)c2)cc1, the “hERG current change (%, negative = inhibition) at 1uM” value was -13%. With COc1ccccc1NC(=O)Nn1cnnc1 the “hERG current change (%, negative = inhibition) at 1uM” value was 12.9%. In the case of Cc1ccc(NC(=S)N2CCN(c3ncccn3)CC2)c(C)c1, the “hERG current change (%, negative = inhibition) at 1uM” value is reported as 1.62%. In the case of O=S(=O)(c1ccccc1)N1CCN(c2cccc(Cl)c2)CC1, the “hERG current change (%, negative = inhibition) at 1uM” value is reported as 9.4%. For O=C(O)c1cccnc1SC1CC(=O)N(Cc2ccccc2)C1=O (stereo not drawn), the “hERG current change (%, negative = inhibition) at 1uM” value was 1.23%. For O=C(Nc1ccc(O)c2c(=O)cc(-c3cccc(Cl)c3)oc12)c1ccc(F)cc1, the “hERG current change (%, negative = inhibition) at 1uM” value was 4.42%. In the case of Cc1oc2c(CN3CCOCC3)c(O)ccc2c(=O)c1-c1ccc(Cl)cc1, the “hERG current change (%, negative = inhibition) at 1uM” value is reported as 3.22%. With Cc1ccccc1C(=O)NCc1nnc(SCC(=O)N2c3ccccc3Sc3ccccc32)n1C the “hERG current change (%, negative = inhibition) at 1uM” value was 8.07%. For COc1ccc(NC(=O)c2ccc3c(=O)n(CC4CCCO4)c(=S)[nH]c3c2)c(OC)c1 (stereo not drawn), the “hERG current change (%, negative = inhibition) at 1uM” value was 17.8%. With CC(C)Oc1ccc(C(=O)NC2CCN(Cc3ccccc3)CC2)cc1 the “hERG current change (%, negative = inhibition) at 1uM” value was -21%. CCOC(=O)c1c(N)sc2c1CCS(=O)(=O)C2 was tested, and the “hERG current change (%, negative = inhibition) at 1uM” value was 11.2%. With CCC(OC(=O)C(CC(C)C)NC(=O)c1ccccc1)C(=O)Nc1nnc(C)s1 (stereo not drawn) the “hERG current change (%, negative = inhibition) at 1uM” value was 9.74%. N#CC1(c2ccc(NC(=O)c3ccccc3F)cc2)CCCC1 was tested, and the “hERG current change (%, negative = inhibition) at 1uM” value was 12.6%. In the case of O=C(CCN1C(=O)/C(=C\c2cccs2)SC1=S)Nc1ccc(C(=O)O)cc1, the “hERG current change (%, negative = inhibition) at 1uM” value is reported as 11.3%. In the case of c1ccc(CNc2nc(-c3ccccc3)nc3ccccc23)cc1, the “hERG current change (%, negative = inhibition) at 1uM” value is reported as 6.51%. In the case of Cc1cccc(NC(=O)c2cc(Cl)ccc2[N+](=O)[O-])c1, the “hERG current change (%, negative = inhibition) at 1uM” value is reported as 0.931%. CC1CCc2c(sc(NC(=O)C(=O)NCc3ccco3)c2C#N)C1 (stereo not drawn) was tested, and the “hERG current change (%, negative = inhibition) at 1uM” value was -63.6%. In the case of CCOC(=O)Cc1csc(NC(=O)CSc2nc(=O)[nH]c3c2CCC3)n1, the “hERG current change (%, negative = inhibition) at 1uM” value is reported as 7.8%. CCC(CC)C(=O)NCCc1cc2cc(C)c(C)cc2[nH]c1=O was tested, and the “hERG current change (%, negative = inhibition) at 1uM” value was 13.6%. With Nc1nc(=S)c2ncn([C@@H]3O[C@H](CO)[C@@H](O)[C@H]3O)c2[nH]1 the “hERG current change (%, negative = inhibition) at 1uM” value was 13.9%. In the case of COc1cccc2cc(-c3cc(=O)oc4ccc(OC(=O)N(C)C)cc34)oc12, the “hERG current change (%, negative = inhibition) at 1uM” value is reported as 22.2%. Cc1ccc(-c2csc3nc[nH]c(=S)c23)cc1 was tested, and the “hERG current change (%, negative = inhibition) at 1uM” value was 12.5%. O=C(Cn1cnc2cc([N+](=O)[O-])ccc2c1=O)NCCc1ccc(F)cc1 was tested, and the “hERG current change (%, negative = inhibition) at 1uM” value was -3.18%. In the case of COc1ccccc1NC(=S)NNC(=O)c1cc(C)nn1C, the “hERG current change (%, negative = inhibition) at 1uM” value is reported as 6.61%. With O=C(c1ccc2nc(N3CCOCC3)sc2c1)N1CCC(Cc2ccccc2)CC1 the “hERG current change (%, negative = inhibition) at 1uM” value was -0.35%. For O=C(CSCc1ccccc1Cl)NNC(=S)Nc1ccccc1, the “hERG current change (%, negative = inhibition) at 1uM” value was 24.3%. For O=c1cc(O)c2c(=O)[nH]c(=O)n(-c3ccccc3)c2[nH]1, the “hERG current change (%, negative = inhibition) at 1uM” value was 12.2%. In the case of Cc1cccc(-c2nnc(SCC(=O)N3CCOCC3)o2)c1, the “hERG current change (%, negative = inhibition) at 1uM” value is reported as 15.5%. In the case of COC(=O)c1ccc(NC(=S)NCc2ccco2)cc1, the “hERG current change (%, negative = inhibition) at 1uM” value is reported as 6.7%. O=C(O)c1ccccc1C(=O)Nc1cccc([N+](=O)[O-])c1 was tested, and the “hERG current change (%, negative = inhibition) at 1uM” value was 12.7%. For O=C1c2ccccc2S(=O)(=O)c2cc(N3CCN(C(=O)c4ccccc4)CC3)ccc21, the “hERG current change (%, negative = inhibition) at 1uM” value was -8.97%.

— publication PMC4336329 (PLoS ONE, 2015)
